Our source for the growth values is the supplement of paper PMC10986608.

The list shows a part of the results. Most values come without repeats; read them as rough.

The subject of this assay is Candida albicans DPL-15. Kind of assay: growth (OD600) after compound treatment (apparently relative to screen median) (relative growth (fraction; screen median 1.02)); DPL-15 is a caspofungin-resistant clinical isolate; higher = more fungal growth (less antifungal activity). To be noted: 25 µM; RPMI 1640; 48 h; 30 °C.
For `CC(C)Cc1n[nH]c2c1C(c1ccc(F)cc1)N(CC1CCN(C)C1)C2=O` (stereo not given), the growth came out at 0.906. As for `CC(C)Cc1nn(-c2ccccc2)c2c1C(c1ccc(Br)cc1)NC2=O` (stereo not given), the figure is 0.902. For the compound `CC(C)CCCC(C)CCN(C(=O)OC(C)(C)C)S(=O)(=O)NC(C)(C)C` (stereo not given), the growth is 1.09. As to `COC(=O)C1=C(C)N(Cc2cccc(C(F)(F)F)c2)C(NCc2ccccc2)=NC1c1ccc(Cl)cc1` (stereo not given), the growth worked out at 0.843. As for `COC(=O)[C@@]1(/C=C/[C@@H](C)[C@H](OC)c2ccccc2Br)[C@@H]2OCC[C@@H]21`, the growth stood at 1.09. As to `CCOC(=O)C1=C(C)NC(=O)NC1c1ccc(C)cc1` (stereo not given), the growth came to 0.836.

As for `CCCCC[C@@]12OCC[C@@H]1[C@@H]1OC(=O)c3c(O)cc(C)c4c(O)cc(c1c34)O2`, the growth was 1.

In the case of `COC(=O)C(c1ccccc1)(c1ccccc1)C(NC(=O)OCc1ccccc1)c1ccccc1` (stereo not given), the growth amounted to 0.94. As to `CC(=O)OC[C@H]1O[C@H](C#Cc2ccccc2F)C=C[C@@H]1OC(C)=O`, the growth came to 0.798. On to `COC(=O)[C@H]1C(=O)[C@]2(c3cn(C)c4ccccc34)Oc3c(OC)cc(OC)cc3O[C@@]2(c2ccc(OC)cc2)[C@@H]1c1ccccc1`, for which the growth was 0.854. Regarding `CC(=O)OC[C@H]1O[C@H](C#Cc2cccc(Br)c2)C=C[C@@H]1OC(C)=O`, the growth amounted to 0.925. Turning to `COc1cc(C)c(O)c2c1-c1c(c(O)c3c(OC)cccc3c1O)C2=O`, the growth is 1.18.

As to `COc1ccc(-c2[nH]c3cccc(F)c3c(=O)c2O)cc1`, the growth was active: 0.0901. On to `COc1ccc(N2C(=O)C3=C(C(c4ccccc4)=NCCN3C)C2c2ccc(F)cc2)cc1` (stereo not given), for which the growth was determined as 1.03. As for `C[C@H]1C[C@@H]2CC(=O)N[C@H](Cc3ccccc3)C(=O)N2[C@H]1c1cccc(Br)c1`, the figure is 1.1; as for `C=CCN1c2ccccc2[C@]23CCC(=O)N(CC(=O)OC)C2=NC(C(=O)OC)=C(C(=O)OC)[C@H]13`, 0.996; as for `CN1CCN=C(c2ccccc2)C2=C1C(=O)N(c1ccccc1)C2c1cccc(C(F)(F)F)c1` (stereo not given), 0.999.

On to `COc1ccc(N2C(=O)C3=C(C(C)=NCCN3C)C2c2ccc(C)cc2)cc1` (stereo not given), for which the growth was 1.07. Regarding `O=C1N(Cc2ccc(F)cc2)c2ccccc2[C@@]12O[C@H](COc1ccccc1)CC1=C2CCC1`, the growth amounted to 1.12. With `Nc1c(-c2ccc(Cl)cc2)cnc2c(-c3ccc(Cl)cc3)cnn12`, the growth stood at 1.15.

On to `C[C@@H]1Cc2cc3c(cc2[C@]2(O1)C(=O)Nc1ccccc12)OCO3`, for which the growth came out at 0.886. In the case of `C=C(C)[C@@]1(O)C[C@@H](C)[C@]2(O)[C@@H]3CCC4(OCCO4)[C@@]3(O[Si](C)(C)C)CC(C)=C[C@]23O[C@H]13`, the growth came to 1.03. As for `CO[C@@H]1[C@H](O)CC[C@]2(O)CN3c4ccccc4[C@@]4(C)O[C@H](CC4=C(C)C)[C@]3(C)[C@@]12O`, the growth was determined as 1.16. As to `C=CC[C@]12C[C@@]3(O[C@H](CCC)N=C3C[C@H](c3ccc(OC)cc3)[C@H]1C)N(Cc1ccncc1)C2=O`, the growth turned out to be 0.87.

As to `CCOc1ccc(-n2c(C)c3c(C)nnc(NC)c3c2C)cc1`, the growth came out at 1.01. In the case of `c1ccc(CCN2CCCC(CN(Cc3ccccc3)C3CC3)C2)cc1` (stereo not given) it was 0.973; in that of `C=CCOc1cc(OCOC)cc2oc(-c3ccc(OC)cc3OCOC)c(OCOC)c(=O)c12`, 1.01. On to `COC(=O)Cc1cccc2c(=O)c3ccc(C)c(C)c3oc12`, for which the growth was determined as 1.03. For the compound `COc1ccc(OC)c(C(=O)c2c(O)cc(O[Si](C(C)C)(C(C)C)C(C)C)cc2OC)c1Br`, the growth stood at 0.865. Consider `CC(C)[C@@H](CN(C(=O)OC(C)(C)C)S(=O)(=O)NC(C)(C)C)N1C(=O)c2ccccc2C1=O`, for which the growth is 0.941. With `COc1ccc(N2C(=O)c3[nH]nc(CC(C)C)c3C2c2cccnc2OC)cc1` (stereo not given), the growth amounted to 0.974. Take `CO[C@@H]1[C@H](O)CC[C@]2(O)CN(c3nc(-c4ccccc4)cs3)[C@@H](CC=C(C)C)[C@](C)(O)[C@@H]12`: the growth was 1.13. Consider `COc1ccc(N2C(=O)c3[nH]nc(CC(C)C)c3C2c2ccc(F)cc2OC)cc1F` (stereo not given), for which the growth was 0.946. In the case of `CC(C)Cc1n[nH]c2c1C(c1ccccc1Br)N(c1ccc3c(c1)OCC(=O)N3)C2=O` (stereo not given) it was 1.02. Turning to `Cc1cc(C)c2c(c1)N=C1CCCC[C@]12Cc1occc(=O)c1OS(C)(=O)=O`, the growth stood at 1.16. With `Clc1cccc2ccc(CCCc3ccccc3)nc12`, the growth is 1.05. Take `COc1cccc(Oc2c(C)cccc2C(=O)O)c1OCc1ccccc1`: the growth amounted to 1.07.

Take `CC(C)=CCc1ccc(OCC(=O)O)c2oc3ccccc3c(=O)c12`: the growth is 1.1. `CCCCCN(C(=O)OC(C)(C)C)S(=O)(=O)NCC`: the growth was found to be 1.19. Regarding `COc1ccc(-n2nc3c(c2C(C)C)C(c2ccccc2)NC3=O)cc1` (stereo not given), the growth is 0.968. `CCOC(=O)C(C)(C)CC#CCN(CC#Cc1ccccc1)S(=O)(=O)c1ccc(C)cc1`: the growth was found to be 0.933. In the case of `CO[C@@H]1[C@H](O)CC[C@]2(O)CN(c3ccc4c(c3)OCO4)[C@@H](CC=C(C)C)[C@](C)(O)[C@@H]12`, the growth was 0.881. As to `C#CCOC[C@H](NC(=O)[C@@H]1C[C@@H](O)CN1)c1ccccc1`, the growth is 0.918. In the case of `C#CCN1C(=O)N(C(C)=O)C(c2ccccc2)C(C(=O)OC)=C1C` (stereo not given), the growth is 0.889. In the case of `COCOc1cc(OC)cc(O)c1C(=O)/C=C/c1ccccc1`, the growth was found to be 1.03. As for `C=CCN1C(=O)C2=C(C(C(C)C)=NCCN2C)C1c1ccccc1` (stereo not given), the growth was found to be 0.994. As to `COc1ccc2c(=O)c3c(F)cccc3oc2c1O`, the growth stood at 1.02. As for `O[C@@H]1C[C@@H](c2ccccc2)[C@]2(c3ccc(Br)cc3)Oc3cc(F)cc(F)c3[C@]12O`, the figure is 1.25; as for `COCCN1C(=O)[C@H]2C[C@@]13O[C@H](c1ccccn1)N=C3C[C@@H]1c3ccccc3C[C@]21C`, 1.01; as for `CC(=O)C1=C2C=CCCN2C(=O)NC1c1cccc(C)c1` (stereo not given), 1.02. Consider `COc1ccc(N2C(=O)c3[nH]nc(CC(C)C)c3C2c2ccccc2OC)cc1F` (stereo not given), for which the growth amounted to 1.14. Take `COC(=O)C1=C(C)N(CCc2cccs2)C(NCCc2cccs2)=NC1c1ccc(C)cc1` (stereo not given): the growth is 0.918. In the case of `Cc1nnc(C)c2c1/C=C\OC[C@@H](c1ccccc1)NC(=O)[C@@H]1C[C@@H](O)CN1C(=O)c1cccc-2n1`, the growth stood at 0.944. As to `C=C(C)[C@@H]1[C@H](c2cc(OC)c(O)c3oc4ccccc4c(=O)c23)C=C(C)C[C@H]1c1cc(OC)c(O)c2oc3ccccc3c(=O)c12`, the growth turned out to be 1.1. As for `CCOc1ccccc1-c1cc(=O)[nH]c2cc3c(cc12)OCO3`, the figure is 1.02. With `COc1ccc(N2C(=O)C3=C(C(C(C)C)=NCCN3)C2c2ccc(F)cc2)cc1` (stereo not given), the growth amounted to 1.08.

Take `COC(=O)[C@H]1C(=O)[C@]2(c3cccn3C)Oc3c(OC)cc(OC)cc3O[C@@]2(c2ccc(OC)cc2)[C@@H]1c1ccccc1`: the growth amounted to 0.897. Turning to `[N-]=[N+]=NC(=O)[C@@H]1CCCN1C(=O)/C=C/c1ccccc1`, the growth worked out at 1.05. For `COC(=O)Cc1nnn2c1[C@H](C)[C@H](c1ccccc1Br)OCC2`, the growth is 0.828. With `COC(=O)C/C=C/[C@H](C)[C@H](NC(=O)C(F)(F)F)c1ccc(OC)cc1`, the growth is 0.992.

Consider `CC1([C@@H]2CC[C@]3(CO)CC[C@]4(C)[C@H](CC[C@@H]5[C@@]6(C)CC[C@H](O)C(C)(C)[C@@H]6CC[C@]54C)[C@@H]23)CO1` (stereo not given in full), for which the growth is 1.17. On to `CC#C/C(O)=C1/C(=O)OCc2c(OC)cc(OC)cc21`, for which the growth was 1.01. With `COc1ccc([C@@H]2[C@@H](C(=O)Nc3ccccc3)[C@H](C(=O)Nc3ccccc3)[C@H]2c2ccc(OC)c(OC)c2)cc1OC`, the growth came to 1. With `CC1(C)CNC(=O)CC2(CCCCC2)CNC(=O)c2cccc(n2)-c2[nH]ncc2C1`, the growth worked out at 1.07. In the case of `CC(=O)[C@H]1C[C@H]2C3=C(C(=O)OCC3)[C@@H]1O[C@@H]2C` it was 1.06; in that of `CCCCc1cccc(Cl)n1`, 1.12; in that of `COC(=O)C1=C(C)N(Cc2ccc(F)cc2)C(=S)NC1c1cccc(Br)c1` (stereo not given), 0.951. As for `CC(=O)N[C@H]1CCN(C(=O)c2c(O)cc(O)cc2Nc2cnn(C)c2)C1`, the figure is 1.01; as for `CCO[C@H]1CCN(C(=O)c2c(O)cc(O)cc2Nc2cn(C)nc2C)C1`, 1.12; as for `COC(=O)C1=C(C)N(CC#C[Si](C)(C)C)C(=O)NC1c1ccccc1` (stereo not given), 0.988. As for `Cc1ccc(S(=O)(=O)N/N=C/c2cccc(C(=O)NCC3(CC(=O)ON4C(=O)CCC4=O)CCCCC3)c2)cc1`, the figure is 0.951; as for `CC(C)[C@H]1NC(=O)C[C@H]2C[C@H](C)[C@H](c3ccccc3)N2C1=O`, 1.09; as for `CCNC(=O)c1cc(-c2c(O)cc(O)cc2Nc2ccn(C)n2)on1`, 1.02. As to `CO[C@@H]1[C@H](O)CC[C@]2(O)CN3[C@@H](Cc4ccccc4)C(=O)O[C@H](CC=C(C)C)[C@]3(C)[C@@H]12`, the growth came to 1.16. In the case of `CC(=O)C1=C2C=CCCN2C(=O)NC1c1ccccc1C(F)(F)F` (stereo not given) it was 0.935; in that of `O=S(=O)(NCC(F)(F)F)OCCCc1ccccc1`, 1.1; in that of `CC(C)Cc1n[nH]c2c1C(c1ccc(F)cc1)N(c1ccc3c(c1)OCCO3)C2=O` (stereo not given), 1.18.

On to `COC(=O)c1c(O)ccc2oc3cc(C)cc(O)c3c(=O)c12`, for which the growth stood at 0.665.

For `COC(=O)C/C=C/[C@H](C)[C@H](NC(=O)C(F)(F)F)c1ccc(C(F)(F)F)cc1`, the growth was 1.04. For the compound `CC(C)(C)NS(=O)(=O)OCCCN1C(=O)c2ccccc2C1=O`, the growth came out at 1.08.
